# Laboratory results: PubChem BioAssay AID686979 (National Center for Advancing Translational Sciences (NCATS), 2013)
# Among all 420,000 compounds or so, about 50,000 (12%) were called active. The inconclusive results got no clear call from the source; some entries with a clear call stand among them for comparison. Calls come from the whole dose curve; as a rule, active = well fitted inhibition curve with a large enough effect; inconclusive = small, poorly fitted or top-dose-only effect; inactive = flat fitted curve, though single readings scatter. Potencies of inconclusive entries are left out as doubtful fits.
# Assay: qHTS for Inhibitors of human tyrosyl-DNA phosphodiesterase 1 (TDP1): qHTS in cells in presence of CPT; note: nearly all actives have a fitted effect of over 55% in size
# Conditions: chicken DT40 Tdp1-/-;hTDP1 cells + 20 nM CPT, ATP luminescence, 48 h; activity change, negative = growth inhibition: at 46.2 µM (top of the series)
# Method in brief: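 Chicken DT40 Tdp1-/- cells complemented with human TDP1, 400 cells/well, exposed to compounds plus 20 nM camptothecin for at least 48 h at 37 C; viability read as ATP content by CellTiter-Glo luminescence.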
# % is set by controls: 0 for no effect and ±100 for the full control effect; potency is the fitted concentration of half-maximal effect; tags give direction and shape of the fitted curve.
Structure (SMILES),Potency,"activity change, negative = growth inhibition"
Cc1ccccc1C(=O)OCC(=O)Nc1cccc(S(=O)(=O)N2CCCCC2)c1,"inconclusive [inhibitor, single point]",
Cc1ccc(NC(=S)NNc2ncc(C(F)(F)F)cc2Cl)c(C)c1,"inconclusive [inhibitor, single point]",
O=C1CSC(=S)N1c1cccc(O)c1,"inconclusive [inhibitor, single point]",
COc1cc2nc(N(CCCN(C)C)C(=O)c3ccc(S(=O)(=O)N4CCc5ccccc54)cc3)sc2cc1OC,"inconclusive [inhibitor, single point]",
CCC(C(=O)NCCC(C)C)n1ccc2cc(S(=O)(=O)N3CCCCC3)ccc21 (stereo unspecified),active: 13 µM,
CC1(C)Cc2cccc(Oc3cc(NN4CCCCC4)c([N+](=O)[O-])cc3[N+](=O)[O-])c2O1,"inconclusive [inhibitor, single point]",
CC1O[C@H](OC2C(COC3OC(CO)C(O)[C@H](O)C3O)OC(OC3CC[C@]4(C)C(CC[C@@]5(C)[C@@H]4C=C[C@]46OC[C@@]7(CCC(C)(C)C[C@H]74)C(O)C[C@@]56C)C3(C)C)C(O)C2O)C(O)C(O)C1O (stereo partly specified),inactive,
CCOC(=O)C(C)Sc1ncnc2c1c(-c1ccccc1)cn2-c1ccc(OC)cc1 (stereo unspecified),inactive,
O=C(NCCS(=O)(=O)NCc1ccccc1Cl)c1ccccc1,inactive,
Cc1ccc(-c2nn3c(C)nnc3c3ccccc23)cc1S(=O)(=O)NC(C)c1ccccc1 (stereo unspecified),"inconclusive [inhibitor, single point]",
CCC(=O)N1CCc2cc(S(=O)(=O)Nc3ccccc3C)ccc21,inactive,
COc1cc(/C=N/NC(=O)CN2CCCCC2)ccc1OCc1ccc(Br)cc1,"inconclusive [inhibitor, single point]",
CCn1nc(-c2ccccc2)c(-c2ccccc2)c(C(=O)OCCOC)c1=O,"inconclusive [inhibitor, single point]",
COc1cccc(OCCOc2ccccc2OC(C)C)c1,inactive,
COc1ccc2sc(-c3ccccc3OC)c(-c3ccc4c(c3)OCCO4)c2c1,"inconclusive [inhibitor, single point]",
O=C(CSc1nccn(-c2ccc3c(c2)OCCO3)c1=O)Nc1ccccc1,"inconclusive [inhibitor, single point]",
CC#CCOC(=O)c1c(C)nc2sc3c(c2c1N)CCC(O)C3 (stereo unspecified),"inconclusive [inhibitor, single point]",
O=C(Nc1ccnn1C1CCN(Cc2ccc3nonc3c2)CC1)c1cccc(F)c1,"inconclusive [inhibitor, single point]",
C/C(=N\NC(=S)NC1CCCCC1)c1ccc(O)cc1,"inconclusive [inhibitor, partial curve]",
O=C(NCCn1cc(SCc2ccc(F)cc2)c2ccccc21)c1ccccc1F,"inconclusive [inhibitor, single point]",
COc1ccc([C@H]2C[C@H](n3cc(COC(=O)c4ccccc4)nn3)[C@@H](O)CN2Cc2cccs2)cc1,"inconclusive [inhibitor, single point]",
CC(C)N(C(=O)Cn1cc(S(=O)(=O)Cc2ccc(C(F)(F)F)cc2)c2ccccc21)C(C)C,"inconclusive [inhibitor, single point]",

Structure (SMILES),Potency,"activity change, negative = growth inhibition"
CCOc1cccc(C(=O)NC(=S)Nc2ccc(N3CCN(CC)CC3)cc2)c1,"inconclusive [inhibitor, single point]",
CCn1nc(NC(=O)c2ccco2)c2cc3ccccc3nc21,"inconclusive [inhibitor, single point]",
Cc1nn(C)c(Oc2cccc(Cl)c2)c1C(=O)Nc1ccc(F)cc1,inactive,
O=c1[nH]c(-c2ccccn2)nc2sc(-c3ccccc3)cc12,active: 2.31 µM,
CCOc1ccc(S(=O)(=O)N2CCN(c3ccccc3)CC2)cc1C(N)=O,inactive,
COc1ccc(NC(=O)c2cn(-c3ccccc3)nc2SC)cc1,"inconclusive [inhibitor, single point]",
CC1CCCC(C)N1C(=O)CSc1ccc(-c2ccc3c(c2)OCCO3)nn1 (stereo unspecified),"inconclusive [inhibitor, single point]",
CCN(CC)CCNC(=O)c1ccc2c(c1NCCO)C(=O)c1ccccc1C2=O,active: 16.4 µM,
CC(=O)Nc1sc(N/N=C\c2ccco2)nc1-c1cccs1,"inconclusive [inhibitor, single point]",
CCOC(=O)N1CCN(c2c(N3CCN(c4ccc(F)cc4)CC3)c(=O)c2=O)CC1,inactive,
Cn1c(=O)[nH]c(=O)c2c1nc(N1CCCCC1)n2CCCSc1nnnn1-c1ccccc1,"inconclusive [inhibitor, single point]",
CCOC(=O)Cc1csc(NC(=O)C(C)c2ccc([N+](=O)[O-])cc2)n1 (stereo unspecified),"inconclusive [inhibitor, single point]",
COc1ccc(NC(=O)Nc2nnc(C(C)(C)C)s2)cc1,inactive,
Cc1ccc(CN(C(=O)COc2ccc(C)c(C)c2)C2CCS(=O)(=O)C2)o1 (stereo unspecified),"inconclusive [inhibitor, single point]",
CCCCOc1ccc(C(=S)N2CCC(C(N)=O)CC2)cc1,inactive,
CSCCC(C(=O)Nc1c(C)cccc1C)N1CCN(C/C=C/c2ccccc2)CC1 (stereo unspecified),"inconclusive [inhibitor, single point]",
O=C(NC(Nc1cc(C(F)(F)F)ccc1Cl)C(=O)c1ccccc1)c1ccccc1 (stereo unspecified),"inconclusive [inhibitor, single point]",
Cc1occc1C(=O)Nc1cccc(S(=O)(=O)N2CCOCC2)c1,inactive,
CCOc1ccc(CCNC(=O)C2CCN(S(=O)(=O)N3CCC(C)CC3)CC2)cc1OCC,"inconclusive [inhibitor, single point]",
CC1Cc2ccccc2N1C(=O)CN1C(=O)C(=O)N(Cc2ccccc2)C1=O (stereo unspecified),inactive,
CCOc1ccc(-n2c(=O)c3c(C)c(C(=O)N(C)C)sc3n(CC(=O)Nc3c(C)cc(C)cc3C)c2=O)cc1,inactive,
O=C(CP(=O)(c1ccccc1)c1ccccc1)Nc1cccc(CP(=O)(c2ccccc2)c2ccccc2)c1,"inconclusive [inhibitor, single point]",

Structure (SMILES),Potency,"activity change, negative = growth inhibition"
COc1ccc2c(Sc3ccc(Cl)cc3)c(C(=O)NCCCN3CCCCC3)[nH]c2c1,active: 23.1 µM,
CC(C)CC(=O)NC(NC(=S)Nc1ccccc1)C(Cl)(Cl)Cl (stereo unspecified),"inconclusive [inhibitor, partial curve, poor fit]",
C[C@@H]1COC(=O)[C@@H](CC(=O)OC(C)(C)C)C/C=C\C[C@@H](CC(=O)N[C@@H](CO)Cc2ccccc2)C(=O)N1,,inconclusive: -32% [inhibitor]
CC(=O)OCOC(c1ccc2ccccc2c1)P(=O)(OCOC(C)=O)OCOC(C)=O (stereo unspecified),"inconclusive [inhibitor, partial curve]",
Cc1cccc(C)c1NC(=O)C(c1ccccc1)N1CCC(c2ccccc2)CC1 (stereo unspecified),"inconclusive [inhibitor, single point]",
CC(=O)Nc1ccc(C(=O)CSc2ncn(-c3ccccc3)n2)cc1,inactive,
C[C@H](CO)N1C[C@H](C)[C@@H](CN(C)Cc2ccncc2)Oc2c(NC(=O)Cc3ccccc3)cccc2C1=O,"inconclusive [inhibitor, single point]",
O=C(O)C1CCCN1C(=O)Nc1ccc(F)cc1 (stereo unspecified),inactive,
O=C(CSc1cccc2cccnc12)Nc1cc(C(=O)O)cc(C(=O)O)c1,inactive,
O=C(Nc1ccccc1)c1cc([N+](=O)[O-])ccc1N1CCCCC1,"inconclusive [inhibitor, single point]",
O=C(Nc1ccncc1)c1ccc2ccccc2c1,"inconclusive [inhibitor, partial curve]",
COc1ccc(S(=O)(=O)Nc2cc(-c3cn4ccccc4n3)ccc2C)cc1,"inconclusive [inhibitor, partial curve]",
CC(=O)NC(Cc1ccc(C)cc1)C(=O)NC1CCN(S(=O)(=O)c2ccccc2)CC1 (stereo unspecified),inactive,
O=C(OCc1cn([C@H]2C[C@H](c3ccccc3)N(Cc3cccs3)C[C@@H]2O)nn1)c1ccccc1,"inconclusive [inhibitor, single point]",
CCN(CC)S(=O)(=O)c1cccc(-c2nnc(SCC#N)n2Cc2ccccc2)c1,"inconclusive [inhibitor, partial curve]",
Cc1ccc(SCC(=O)c2cc(C)c(OC(=S)N(C)C)c(C)c2)cc1,"inconclusive [inhibitor, single point]",
O=C(c1ccc(C(F)(F)F)cc1)N1CCC(=O)N(C(CO)Cc2ccccc2)CC1 (stereo unspecified),"inconclusive [inhibitor, single point]",
Cc1ccc(S(=O)(=O)NC(N)=NCCc2ccccc2)cc1C,"inconclusive [inhibitor, single point]",
CCc1nc2ccc(C(=O)Nc3cc(-c4ccccc4)ccc3OC)cn2c1N(C=O)CCC(C)C,active: 16.4 µM,
Cn1c(SCC(=O)NCC2CCCO2)ncc(C(=O)Nc2ccccc2)c1=O (stereo unspecified),active: 25.9 µM,
Cc1cccc(Oc2c([N+](=O)[O-])c(=O)n(C)c3ccccc23)c1,"inconclusive [inhibitor, single point]",
COc1cc(NC(=O)c2cccs2)ccc1NC(=O)c1cc2ccccc2o1,"inconclusive [inhibitor, partial curve, poor fit]",
